Results from the supplement of paper PMC4604168 (melanoma cell lines).
The list shows a part of the results. Most values come without repeats; read them as rough.

How the values were obtained:
Assay in all cases: cell count relative to DMSO control; melanoma cells; higher = more viable cells
Details in all cases: library dose: low library concentration; 72 h
WM115 = test system: WM115
WM1716 = test system: WM1716
WM1745 = test system: WM1745
WM3526 = test system: WM3526
WM3619 = test system: WM3619
WM451Lu = test system: WM451Lu
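Note: cell number obtained by counting DAPI-stained nuclei in high-throughput microscope images with image analysis software, screen run in 1,536-well plates.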

SMILES | cell count (WM115) [%] | cell count (WM1716) [%] | cell count (WM1745) [%] | cell count (WM3526) [%] | cell count (WM3619) [%] | cell count (WM451Lu) [%]
O=C(Nc1ccccc1)c1cc([N+](=O)[O-])ccc1Cl + CC(C)CCN1c2nc(Nc3cc(F)c(O)c(F)c3)ncc2N(C)C(=O)C1C [BID1870] (first compound 2 µM, partner dose 0.2 µM) | 81.9 | 92 | 89.1 | 101 | 111 | 109
O=C(O)c1ccc2c(c1)nc(Nc1cccc(Cl)c1)c1ccncc12 + CCN(CC)CCCCNc1ncc2cc(-c3cc(OC)cc(OC)c3)c(NC(=O)NC(C)(C)C)nc2n1 [PD173074] (first compound 0.4 µM, partner dose 0.1 µM) | 93.8 | 92.3 | 89.2 | 100 | 92.4 | 85.8
Cn1nnc2c(C(N)=O)ncn2c1=O [temozolomide] + COc1ccc(COc2ccc(Cc3cnc(N)nc3N)cc2OC)cc1 [GW2580] (first compound 2 µM, partner dose 1 µM) | 105 | 83.6 | 89.4 | 104 | 104 | 85.8
Cn1nnc2c(C(N)=O)ncn2c1=O [temozolomide] + O=C(Nc1ccccc1)c1cc([N+](=O)[O-])ccc1Cl [GW9662] (first compound 2 µM, partner dose 2 µM) | 103 | 78.2 | 75.5 | 81.9 | 119 | 113
O=C(Nc1cc(C(F)(F)F)cc(C(F)(F)F)c1)c1cc(Cl)ccc1O + C=CCNC1=C2C[C@@H](C)C[C@H](OC)[C@H](O)[C@@H](C)/C=C(\C)[C@H](OC(N)=O)[C@@H](OC)/C=C\C=C(/C)C(=O)NC(=CC1=O)C2=O [Tanespimycin] (first compound 0.016 µM, partner dose 0.002 µM) | 97.3 | 97.1 | 80.8 | 95.7 | 92.2 | 92.7
Cc1cc(N2CCOCC2)cc2[nH]c(-c3c(NC[C@@H](O)c4cccc(Cl)c4)cc[nH]c3=O)nc12 + CN(C)S(=O)(=O)c1ccc2c(c1)/C(=C/c1cc3c([nH]1)CCCC3)C(=O)N2 [SU6656] (first compound 0.2 µM, partner dose 0.4 µM) | 68.1 | 90.7 | 62.6 | 87.9 | 79.7 | 78.9
O=C(Nc1cc(C(F)(F)F)cc(C(F)(F)F)c1)c1cc(Cl)ccc1O + Cc1cc(Nc2cc(N3CCN(C)CC3)nc(/C=C/c3ccccc3)n2)n[nH]1 [ENMD2076] (first compound 0.016 µM, partner dose 0.04 µM) | 102 | 79.1 | 99.6 | 108 | 91.6 | 83.9
O=C(Nc1cc(C(F)(F)F)cc(C(F)(F)F)c1)c1cc(Cl)ccc1O + Oc1cc(-c2nc(-c3ccccc3)[nH]c2-c2ccncc2)ccc1Cl [L779450] (first compound 0.016 µM, partner dose 0.2 µM) | 90.7 | 137 | 99.1 | 67.5 | 85 | 86.5
O=C(Nc1cc(C(F)(F)F)cc(C(F)(F)F)c1)c1cc(Cl)ccc1O + CNC(=O)c1cc(Oc2ccc(NC(=O)Nc3ccc(Cl)c(C(F)(F)F)c3)cc2)ccn1 [sorafenib] (first compound 0.016 µM, partner dose 0.4 µM) | 95.2 | 82.8 | 113 | 66.7 | 92.9 | 100
O=C(O)[C@@H]1[O][Sb](=[O])([O][Sb]2(=[O])[O][C@H]([C@H](O)CO)[C@H](O)[C@H](C(=O)O)[O]2)[O][C@H]([C@H](O)CO)[C@@H]1O (stereo not given in full) [stibogluconate] + C=CCn1c(=O)c2cnc(Nc3ccc(N4CCN(C)CC4)cc3)nc2n1-c1cccc(C(C)(C)O)n1 [MK1775] (first compound 2 µM, partner dose 0.02 µM) | 83.3 | 83.7 | 56.4 | 87 | 88.1 | 116
O=C(O)[C@@H]1[O][Sb](=[O])([O][Sb]2(=[O])[O][C@H]([C@H](O)CO)[C@H](O)[C@H](C(=O)O)[O]2)[O][C@H]([C@H](O)CO)[C@@H]1O (stereo not given in full) [stibogluconate] + O=C(CCCCCCC(=O)Nc1ccccc1)NO [vorinostat] (first compound 2 µM, partner dose 0.08 µM) | 106 | 120 | 5.84 | 103 | 88.1 | 89.4
O=C(O)c1ccc2c(c1)nc(Nc1cccc(Cl)c1)c1ccncc12 + COC(=O)c1sccc1S(=O)(=O)Nc1ccc(Nc2ccccc2)cc1OC [GSK0660] (first compound 0.4 µM, partner dose 1 µM) | 113 | 89.4 | 83.3 | 88.8 | 111 | 116
O=C(O)c1ccc2c(c1)nc(Nc1cccc(Cl)c1)c1ccncc12 + O=C(Nc1ccccc1)c1cc([N+](=O)[O-])ccc1Cl [GW9662] (first compound 0.4 µM, partner dose 2 µM) | 97.1 | 112 | 88 | 87.9 | 87.2 | 85.1
O=C(O)[C@@H]1[O][Sb](=[O])([O][Sb]2(=[O])[O][C@H]([C@H](O)CO)[C@H](O)[C@H](C(=O)O)[O]2)[O][C@H]([C@H](O)CO)[C@@H]1O (stereo not given in full) [stibogluconate] + CCCS(=O)(=O)Nc1ccc(F)c(C(=O)c2c[nH]c3ncc(Cl)cc23)c1F [PLX4720] (first compound 2 µM, partner dose 0.08 µM) | 97.2 | 90.6 | 98.1 | 74 | 92.2 | 101
O=C(O)[C@@H]1[O][Sb](=[O])([O][Sb]2(=[O])[O][C@H]([C@H](O)CO)[C@H](O)[C@H](C(=O)O)[O]2)[O][C@H]([C@H](O)CO)[C@@H]1O (stereo not given in full) [stibogluconate] + Oc1cc(-c2nc(-c3ccccc3)[nH]c2-c2ccncc2)ccc1Cl [L779450] (first compound 2 µM, partner dose 0.2 µM) | 74.6 | 121 | 86.7 | 72.4 | 96 | 104
O=C(Nc1cc(C(F)(F)F)cc(C(F)(F)F)c1)c1cc(Cl)ccc1O + COc1ccc(COc2ccc(Cc3cnc(N)nc3N)cc2OC)cc1 [GW2580] (first compound 0.016 µM, partner dose 1 µM) | 107 | 120 | 121 | 104 | 88.3 | 87.1
O=C(Nc1cc(C(F)(F)F)cc(C(F)(F)F)c1)c1cc(Cl)ccc1O + CC(=O)O[C@@]12CO[C@@H]1C[C@H](O)[C@@]1(C)C(=O)[C@H](O)C3=C(C)[C@@H](OC(=O)[C@H](O)[C@@H](NC(=O)OC(C)(C)C)c4ccccc4)C[C@@](O)([C@@H](OC(=O)c4ccccc4)[C@H]21)C3(C)C [Docetaxel] (first compound 0.016 µM, partner dose 0.0001 µM) | 71.9 | 55.2 | 72.6 | 75 | 82.2 | 59.9
O=C(Nc1cc(C(F)(F)F)cc(C(F)(F)F)c1)c1cc(Cl)ccc1O + C[C@@H]1CCN(C(=O)CC#N)C[C@@H]1N(C)c1ncnc2[nH]ccc12 [CP690550] (first compound 0.016 µM, partner dose 1 µM) | 97 | 101 | 92.6 | 113 | 88.3 | 109
Cc1cc(N2CCOCC2)cc2[nH]c(-c3c(NC[C@@H](O)c4cccc(Cl)c4)cc[nH]c3=O)nc12 + O=C(O)c1ccc(-c2c[nH]c3ncc(-c4ccccc4)cc23)cc1C1CCCC1 [GSK650394] (first compound 0.2 µM, partner dose 0.16 µM) | 103 | 103 | 73.5 | 87.3 | 87.6 | 111
O=C(Nc1cc(C(F)(F)F)cc(C(F)(F)F)c1)c1cc(Cl)ccc1O + COc1ccc2c(c1)CCC1C2CCC2(C)C(NCCCCCCN3C(=O)C=CC3=O)CCC12 [U73122] (first compound 0.016 µM, partner dose 0.4 µM) | 101 | 103 | 107 | 104 | 123 | 98.2
